Reference: paper PMC11452662
“And” between values parts separate entries of the source, which are not always exact repeats. Identical values can stand only once.

T1: recombinant avidin expressed from corn, P02701
T1 chain: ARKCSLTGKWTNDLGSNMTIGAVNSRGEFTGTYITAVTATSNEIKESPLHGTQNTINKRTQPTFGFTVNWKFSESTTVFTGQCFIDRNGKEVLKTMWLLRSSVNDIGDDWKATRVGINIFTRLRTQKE

T2: natural egg white avidin, P02701
T2 chain: T1 chain

B1: recombinant avidin expressed from corn, P02701 25-152 (natural protein)
chain: T1 chain
modifications: here or on the partner: glycosylated (heterogeneous); glycosylated (heterogeneous)
B2: natural egg white avidin, P02701 25-152 (natural protein)
chain: T1 chain
modifications: here or on the partner: glycosylated (heterogeneous); glycosylated (heterogeneous)

Tests used:
[1] = biological target: T1, recombinant avidin expressed from corn, …; assay: native MS; avidin as bought and avidin recovered with biotin-conjugated SNAP beads from a spike in E. coli lysate; 150 mM ammonium acetate; low collisional dissociation settings; conditions: remark: other sources report otherwise
[2] = biological target: T2, natural egg white avidin, P02701; assay: as above; conditions: remark: other sources report otherwise

Row | Binder | stoichiometry N [1] | stoichiometry N [2]
1 | B1 | 4 and 8 | 
2 | B2 |  | 4
